In all, about 150,000 compounds went through this assay and about 540 (0.36%) showed an effect of 50% or more. The list shows a part of the results. Where a SMILES comes first, the peptide text is derived from it. The star is where a group is joined. Cbz = O=C(OCc1ccccc1)*; OtBu = CC(C)(C)O*
Test system: Plasmodium falciparum
Test: Primary screen in NF54 nanoGlo assay, in single point, at 2uM, 72h; a lower Z score goes with more inhibition
Type: functional, Erythrocyte
Details: timepoint 72 hour

| SMILES | % Inhibition [%] | Z score |
| --- | --- | --- |
| CCC(NC(=O)CCc1ccc(C)o1)C(c1ccc(C)cc1)n1cncn1 (stereo not drawn) | 7 | -0.73 |
| Cc1nnc(N2CC[C@H](C)C3(CCC3)C2)n1C | -7 | 0.66 |
| CCONC(=O)[C@H](C)Oc1cccc(C#N)c1 | -8 | 1.22 |
| O=C(Nc1cccnn1)Nc1ccn(CCc2ccncc2)n1 | -7 | 0.81 |
| COc1cc(OC)cc(-c2onc(C)c2C(=O)NCCc2ccc(F)cc2)c1 | -4 | 0.61 |
| CC(C)C(=O)N1CCC(NC(=O)[C@H](O)c2ccccc2Cl)C1 (stereo partly drawn) | -13 | 1.9 |
| CC(C)c1cccc2c1CCN(C(=O)C1CCN(C)CC1)C2 | -2 | 0.39 |
| Cc1cc(C)c2nc(CN3CCC[C@H]3C(=O)N3CCOCC3)cc(O)c2c1 | -10 | 0.9 |
| COc1ccc(NC(=O)CC(=O)NCc2cc(C)n[nH]2)c(OC)c1 | -10 | 1.23 |
| CCc1ccc(NC(=O)CC2CCN(S(=O)(=O)c3ccc4c(c3)CCN4C(C)=O)CC2)cc1 | -18 | 2.29 |
| CC(C)(C)OC(=O)N1CCC(=C2CC2)CC1 | -14 | 1.69 |
| CO[C@H]1[C@H](NC(=O)c2cccs2)c2ccccc2C12CCN(Cc1c(F)ccc(F)c1F)CC2 | -1 | 0.24 |
| COc1ccccc1CNC(=O)C(F)(F)C1(O)CCC1 | -2 | 0.34 |
| Cc1ccc(-c2noc(C(C)N3CCN(C(C)C(=O)Nc4ccc(OC(F)F)cc4)CC3)n2)cc1 (stereo not drawn) | 4 | -0.72 |
| CCCCS(=O)(=O)NC(=O)c1cc(F)c(F)c(F)c1 | -1 | 0.06 |
| CN(CC1(O)CCCC1)C(=O)C1(C)CC1F (stereo not drawn) | -2 | 0.26 |
| COc1ccc(NC(=O)N2CC=C(c3cn(C(C)C)c4ncccc34)CC2)cc1Cl | -3 | 0.37 |
| COc1ccc(-n2nnnc2-c2cnc3ccccc3c2-c2ccccc2)cc1 | -11 | 1.25 |
| O=C1NC(=O)N2CCN(CC3CCC(c4ccccc4)CC3)C[C@@H]12 (stereo partly drawn) | 26 | -2.91 |
| Cc1ccc2cc(CN3CCn4cccc4[C@H]3c3ccccn3)c(=O)[nH]c2c1 | -5 | 0.83 |
| COC(=O)c1cc(NC(=O)C(Cl)(Cl)Cl)cc(C(=O)OC)c1 | 2 | -0.29 |

| SMILES | % Inhibition [%] | Z score |
| --- | --- | --- |
| COc1cc(-c2cccc(-c3cc[nH]n3)c2)ccc1O | -2 | 0.4 |
| Cc1ccn2cc(C(=O)N3CCN(C)CC3)nc2c1 | -8 | 1.57 |
| CS(=O)(=O)N1CCC[C@@H]1CCc1noc(-c2cccnc2)n1 | -4 | 0.64 |
| COc1ccc(CN2CCO[C@]3(CCOC3)C2)cc1OCc1ccccc1 | -7 | 1.07 |
| CCc1noc(CNC(=O)CCc2scnc2C)n1 | -5 | 0.73 |
| Cn1nc(C(=O)NCc2cccs2)cc1C(=O)NCc1cccs1 | 43 | -5.76 |
| CN(C(=O)c1cnc(-c2ccccc2)nc1)C1C2CCOC2C1(C)C (stereo not drawn) | -9 | 1.38 |
| CC(C)N(C)CC(=O)NCC1(O)CCCCC1 | -4 | 0.62 |
| Cn1nc(-c2ccccn2)cc1CNC(=O)c1cccc(Cl)c1 | -4 | 0.5 |
| CNS(=O)(=O)N1CCC[C@H](c2ccncc2)CC1 | -14 | 2.77 |
| O=C(Nc1ccccc1Oc1ccccc1)c1n[nH]c(=O)c2ccccc12 | -15 | 1.98 |
| CCNC(=O)c1ccc(-c2ccccc2CN2CCOCC2)s1 | 0 | 0.01 |
| CC[C@H](C)NC(=O)c1cc(NS(=O)(=O)c2ccc(C)cc2)cnc1N1CCNCC1 | -6 | 0.79 |
| O=C(CN1C(=O)CN(C(=O)Nc2ccccc2)c2ccccc21)NCc1ccccn1 | -12 | 1.6 |
| CCCc1sc(N(C(=O)c2ccc(F)cc2)c2ccc(OC)cc2)nc1-c1ccccc1 | -12 | 1.9 |
| COc1cc(-c2cc(C)cc(CN3CCCC3)c2)cc(OC)c1OC | 5 | -0.92 |
| O=C(c1ccc(-n2cnnn2)cc1)N1CCCCCCC1 | -21 | 2.77 |
| CNC(=O)N1CCC[C@H](CC(F)(F)F)C1 | -5 | 0.56 |
| Cc1cc(F)ccc1-n1ccc(NC(=O)NC(C)C(C)CO)n1 (stereo not drawn) | -7 | 0.87 |
| CC(C)CC(NC(=O)C(Cc1ccccc1)NC(=O)C1CCCN1C(=O)OCc1ccccc1)C(=O)OC(C)(C)C (stereo not drawn) (Cbz-Pro-Phe-Leu-OtBu; configuration not given here) | -1 | 0.11 |
| Cn1ccc2c(NC(=O)CC[C@@H]3N=C(O)N(CCc4ccccc4)C3=O)cccc21 | -10 | 1.33 |

| SMILES | % Inhibition [%] | Z score |
| --- | --- | --- |
| Cc1cc(C)cc(NC(=O)Cc2nnc(-c3ccsc3)o2)c1 | -1 | 0.1 |
| CN(C(=O)c1c[nH]c(=O)c(Cl)c1)C(C1CC1)C1CC1 | -1 | 0.17 |
| CCC(=O)N(CCN1CCOCC1)Cc1nccn1Cc1ccc(Cl)cc1Cl | 5 | -0.92 |
| COc1ccc(-c2nccn3cc(C(=O)N4CCN(CC(C)C)CC4)nc23)cc1 | 29 | -3.31 |
| Cc1c(CC(=O)N[C@H](C(N)=O)C(C)C)c2c(n1Cc1ccccc1)CCCC2=O | 5 | -0.48 |
| CCC(Cc1ccc(Cl)cc1Cl)NC(=O)C(C)NC(N)=O (stereo not drawn) | 5 | -0.59 |
| CC1(C)CNc2ccc(S(=O)(=O)N3CCOCC3)cc21 | -2 | 0.25 |
| CCCc1cc(C(=O)N(CC)Cc2ccc(C)o2)n(C)n1 | 8 | -1.17 |
| CCc1ocnc1-c1nc(Cc2ccccc2OC)n[nH]1 | -10 | 1.38 |
| CCN(CC)C(=O)C1(O)C2C=CC=CC2=NC(=O)N1c1ccccc1 (stereo not drawn) | -25 | 2.95 |
| C[C@H]1CN(C(=O)Cc2cncs2)CCS1(=O)=O | -4 | 0.76 |
| C1CCn2c(nnc2CNC2C3CCOC3C23CCCC3)C1 (stereo not drawn) | -2 | 0.25 |
| FC(F)(F)c1ccccc1CC[C@H]1CCCNC1 | -9 | 1.1 |
| CS(=O)(=O)N[C@H]1[C@H](NC(=O)c2cc3sccc3[nH]2)[C@@H]2CCO[C@@H]21 | 3 | -0.5 |
| CN(CC(=O)Nc1cnn(C)c1)Cc1cc2cc(F)ccc2[nH]1 | 0 | -0.01 |
| CC1CC1C(=O)N(C1CCCC1)C1CC1 (stereo not drawn) | -14 | 1.52 |
| O=C(Nc1ncccc1O)[C@H]1C[C@@H]1C(F)F | -9 | 1.76 |
| CC(=O)N1CCCN(C(=O)c2cccc(-c3nc(C)cc(C)n3)c2)CC1 | -11 | 1.06 |
| O=S1(=O)CCN(c2nc(C3CCCC3)ns2)CCC12CCC2 | -8 | 1.3 |
| Cc1ccc(OCCN2C(=O)NC3(CCCC3)C2=O)cc1 | -12 | 1.95 |
| CN(Cc1cccnc1)C(=O)CCC[C@@H]1[C@H]2CCCN3CCC[C@@H](CN1Cc1cccnc1)[C@@H]23 | -4 | 0.64 |

| SMILES | % Inhibition [%] | Z score |
| --- | --- | --- |
| C=C(C)[C@@H]1Cc2nc(NC(=O)c3ccccc3)nc(C)c2C1 | -14 | 1.8 |
| O=C1NCC[C@@H]1CCOc1cc(F)cc(F)c1 | -3 | 0.64 |
| CC(C)c1ccc(NC(=O)N2CCN(C(C(=O)N3CCCCC3C)C3CCCC3)CC2)cc1 (stereo not drawn) | 5 | -0.72 |
| COc1ccc(NC(=O)c2ccc(C)nc2C2CCN(C(=O)c3cccc(Br)c3)CC2)cc1 | 5 | -0.54 |
| CC(=O)N1Cc2ccccc2C[C@H]1C(=O)N1CCn2nc(C)nc2C1 | -14 | 2.66 |
| COc1ccc([C@](O)(CCN2CCCCC2)C2CCCCC2)cc1 | -11 | 2.06 |
| CN(CC1(O)CCCCCC1)C(=O)c1ccc(CCC(F)(F)F)cc1 | 2 | -0.21 |
| CC(C)N(C)S(=O)(=O)N1CCC(OCc2ccc(F)cc2)CC1 | -4 | 0.53 |
| COc1ccc2c(c1)C(N1CCCN(C(=O)C3CCCCC3)CC1)=Nc1cc(C(F)(F)F)ccc1O2 | 11 | -1.35 |
| CN(c1ccc(C(N)=O)cc1)S(=O)(=O)c1ccc2c(c1)CCC2 | -5 | 0.73 |
| CC(=O)Nc1ccc(CCc2nc3cc(C(=O)N4CCC(C)CC4)ccc3[nH]2)cc1 | 6 | -0.73 |
| Cc1ncc(CNC(=O)N(C)Cc2c(C)noc2C)s1 | -3 | 0.39 |
| Cc1cc(-c2nnn(CC(=O)N3CCNC3=O)n2)ccc1F | -2 | 0.25 |
| CC1C(C)S(=O)(=O)CCN1Cc1cncs1 (stereo not drawn) | 5 | -0.7 |
| Cc1cc(S(=O)(=O)N2CCC3(CC2)NCCCN=C3NC2CCCC2)ccc1F | -14 | 1.75 |
| CC(=O)NCCc1csc(C2CCN(C(=O)c3ccc(F)cc3)CC2)n1 | 0 | 0 |
| N[C@H]1CN(C(=O)c2ccc3c(c2)OCCCO3)C[C@@H]1c1ccccc1F | -3 | 0.65 |
| CC(C)C[C@@H]1NC2(CCN(S(=O)(=O)c3cccc(Cl)c3Cl)CC2)N(C2CC2)C1=O | -9 | 1.24 |
| CCOC(=O)C(=O)Nc1ccc(Cl)c(C(F)(F)F)c1 | -28 | 3.27 |
| Cc1cccc(C(=O)NCCOc2ccccc2F)n1 | -4 | 0.75 |
| C=CCC[C@H](O)CN(Cc1ccco1)Cc1c(C)nn(-c2ccccc2)c1Oc1ccc(F)cc1F | -7 | 1.18 |

Reference: ChEMBL document CHEMBL4888484, “Replenishing the malaria drug discovery pipeline: Screening and hit evaluation of the MMV Hit Generation Library 1 (HGL1) against asexual blood stage Plasmodium falciparum ,using a nano luciferase reporter read-out” (2022)
